# Where “and” joins values, the source holds several entries; their conditions need not be identical. Identical values can stand only once. This list was built around the results that the source calls inconclusive (neither active nor inactive); the mix of calls is not that of the screen. Potencies beside an inconclusive call are fits to weak or partial responses and may not hold up. More than one record can exist for a structure, and the calls need not agree. Calls of active or inactive are those of the source. Unless noted, calls come from the whole dose curve; as a rule, active = well fitted curve in the direction sought with a large enough effect in the repeat runs; inconclusive = weak or mixed curves; inactive = no such curve, though single readings can be large; an effect the other way counts as inactive or inconclusive.
# What was measured:
# [1] = target: Aryl hydrocarbon receptor (Homo sapiens) (UniProt P35869); assay: qHTS assay to identify small molecule that activate the aryl hydrocarbon receptor (AhR) signaling pathway (AID 743085); note: nearly all actives have a fitted effect of over 15% in size;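 for activation: HG2L7.5c1 human HepG2 liver cells with stably integrated DRE-driven firefly reporter; % is set by controls: 0 for no effect and ±100 for the full control effect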
# In short: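 Luminescence (ONE-Glo) from a dioxin-responsive-element luciferase reporter in HG2L7.5c1 HepG2 cells after 24 hr compound exposure at 37C; viability measured by CellTiter-Fluor fluorescence beforehand.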
# [2] = target: Peroxisome proliferator-activated receptor gamma (Homo sapiens) (UniProt P37231); assay: qHTS assay to identify small molecule agonists of the peroxisome proliferator-activated receptor gamma (PPARg) signaling pathway (AID 743094; active = well fitted activation curve with a large enough effect in the signal ratio in the repeat runs, not every such curve was filed as active; inconclusive = weak or mixed curves, or effect the other way; inactive = no such curve, though single readings can be large or run the other way; the % refers to the signal ratio; for activation: % is set by controls: 0 for no effect and ±100 for the full control effect); conditions: HEK293H PPARg-UAS-bla, beta-lactamase FRET ratio, 17 h; activation: at 57 µM (top of the series) unless noted
# In short: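 GeneBLAzer PPARg UAS-bla HEK293H cells carrying a stably integrated beta-lactamase reporter were pre-incubated 5 h at 37C, then exposed to compounds in DMSO for 17 h at 37C; LiveBLAzer B/G FRET substrate was added for 1 h at room temperature and fluorescence read.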
# [3] = target: Peroxisome proliferator-activated receptor gamma (Homo sapiens) (UniProt P37231); assay: qHTS assay to identify small molecule antagonists of the peroxisome proliferator-activated receptor gamma (PPARg) signaling pathway (AID 743191; calls by dose curve; note: nearly all actives have a fitted effect of over 30% in size); conditions: HEK293H PPARg-UAS-bla, beta-lactamase ratio, antagonist, 17 h; ratio activity, negative = inhibition: at 62.6 µM (top of the series) unless noted
# In short: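 GeneBLAzer PPARg UAS-bla HEK293H cells, 5 h post-plating, exposed to compounds 17 h at 37C. LiveBLAzer B/G FRET substrate added for 1 h at room temperature; beta-lactamase reporter read by fluorescence intensity.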
# [4] = qHTS assay to identify small molecule antagonists of the peroxisome proliferator-activated receptor gamma (PPARg) signaling pathway - cell viability counter screen (AID 743194); conditions: PPARg-bla HEK293H viability, CellTiter-Glo luminescence, 17 h, co-treated with 50 nM rosiglitazone; activity change, negative = cytotoxicity: at 62.6 µM (top of the series) unless noted; note: nearly all actives have a fitted effect of over 55% in size
# In short: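 Cytotoxicity counter screen in PPARg-bla HEK293H cells, same wells as reporter assay. Compounds plus 50 nM rosiglitazone (final) for 17 h at 37 C, then viability read by CellTiter-Glo luminescence.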
# [5] = qHTS assay for small molecule agonists of the antioxidant response element (ARE) signaling pathway (AID 743202; active = well fitted activation curve with a large enough effect in the signal ratio in the repeat runs, not every such curve was filed as active; inconclusive = weak or mixed curves, or effect the other way; inactive = no such curve, though single readings can be large or run the other way; the % refers to the signal ratio); conditions: HepG2 ARE-bla reporter, beta-lactamase FRET, 16 h; activation: at 73.3 µM (top of the series) unless noted
# In short: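 Agonist mode reporter screen: HepG2 cells with ARE-controlled beta-lactamase are incubated with test compounds for 16 h at 37 C, and beta-lactamase activity is measured as fluorescence of cleaved B/G FRET substrate.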
# [6] = qHTS assay for small molecule agonists of the antioxidant response element (ARE) signaling pathway - cell viability counter screen (AID 743203; calls by dose curve; note: nearly all actives have a fitted effect of over 55% in size); conditions: ARE-bla HepG2 viability, CellTiter-Glo luminescence, 16 h; viability change, negative = cytotoxic: at 73.3 µM (top of the series)
# In short: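 CellSensor ARE-bla HepG2 cells, 2,000 per well, rested 5 hrs at 37C/5% CO2, then exposed to compound in DMSO for 16 hrs; viability read as CellTiter-Glo luminescence after 30 min at room temperature, in the reporter wells.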
# [7] = qHTS assay for small molecule activators of the heat shock response signaling pathway (AID 743210; active = well fitted activation curve with a large enough effect in the signal ratio in the repeat runs, with a control signal flat, not every such curve was filed as active; inconclusive = weak or mixed curves; the % refers to the signal ratio); conditions: HeLa HSE-bla reporter, beta-lactamase ratio, 5 h; activation: at 62.6 µM (top of the series) unless noted
# In short: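 Quantitative high-throughput format using an engineered HeLa line in which heat shock response elements drive beta-lactamase; after 5 h with compound, cells received a B/G FRET substrate and fluorescence was read.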
# [8] = qHTS assay to identify small molecule agonists of the peroxisome proliferator-activated receptor delta (PPARd) signaling pathway - cell viability counter screen (AID 743211); conditions: PPARd-bla HEK293H viability, CellTiter-Glo luminescence, 17 h; activity change, negative = cytotoxicity: at 62.6 µM (top of the series) unless noted; note: nearly all actives have a fitted effect of over 55% in size
# In short: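 Viability was measured as CellTiter-Glo luminescence (30 min, room temperature) in the same wells as the beta-lactamase readout. GeneBLAzer PPARd UAS-bla HEK293H cells received compound after 5 h plating and were incubated 17 h at 37 C.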
# [9] = target: Peroxisome proliferator-activated receptor delta (Homo sapiens) (UniProt Q03181); assay: qHTS assay to identify small molecule agonists of the peroxisome proliferator-activated receptor delta (PPARd) signaling pathway (AID 743212; calls by dose curve); conditions: HEK293H PPARd-UAS-bla, beta-lactamase FRET ratio, 17 h; activation: at 62.6 µM (top of the series) unless noted
# In short: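 Quantitative high-throughput agonist screen in a HEK293H beta-lactamase reporter line under UAS control. Compounds in DMSO, at 37 C. Fluorescence read after 2 h with FRET substrate at room temperature.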
# [10] = qHTS assay to identify small molecule antagonists of the peroxisome proliferator-activated receptor delta (PPARd) signaling pathway - cell viability counter screen (AID 743213); conditions: PPARd-bla HEK293H viability, CellTiter-Glo luminescence, 17 h; viability change, negative = cytotoxic: at 62 µM (top of the series) unless noted; note: nearly all actives have a fitted effect of over 50% in size
# In short: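 PPARd-bla HEK293H cells were treated with compounds plus agonist L165041 (300 nM final) for 17 h at 37 C. Viability was then read in the same wells by CellTiter-Glo luminescence after 30 min at room temperature.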
# [11] = target: Peroxisome proliferator-activated receptor delta (Homo sapiens) (UniProt Q03181); assay: qHTS assay to identify small molecule antagonists of the peroxisome proliferator-activated receptor delta (PPARd) signaling pathway (AID 743215; active = well fitted inhibition curve with a large enough effect in the signal ratio in the repeat runs, not every such curve was filed as active; inconclusive = weak or mixed curves, or effect the other way; inactive = no such curve, though single readings can be large or run the other way; the % refers to the signal ratio;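 note: cells stimulated with agonist L165041 at 300 nM final during compound exposure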); conditions: HEK293H PPARd-UAS-bla, beta-lactamase FRET ratio, antagonist, 17 h; ratio activity, negative = inhibition: at 62 µM (top of the series) unless noted
# In short: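 PPARd UAS-bla HEK293H cells were pre-incubated 5 h at 37 C, then given test compounds in DMSO plus agonist L165041 (300 nM final). After 17 h at 37 C, beta-lactamase FRET substrate was added; fluorescence read after 2 h at room temperature.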
# [12] = target: Bile acid receptor (Homo sapiens) (UniProt Q96RI1); assay: qHTS assay to identify small molecule antagonists of the farnesoid-X-receptor (FXR) signaling pathway (AID 743217; active = well fitted inhibition curve with a large enough effect in the signal ratio in the repeat runs, not every such curve was filed as active; inconclusive = weak or mixed curves, or effect the other way; inactive = no such curve, though single readings can be large or run the other way; the % refers to the signal ratio); conditions: HEK293T FXR-UAS-bla, beta-lactamase ratio, CDCA-stimulated, 16 h; activity change, negative = inhibition: at 62.6 µM (top of the series) unless noted
# In short: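 FXR-UAS-bla HEK 293T cells pre-incubated 5 h at 37 °C, then exposed to compounds with chenodeoxycholic acid (50 uM final) for 16 h at 37 °C. Beta-lactamase reporter read by LiveBLAzer B/G FRET substrate fluorescence after 2 h at room temperature.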
# [13] = qHTS assay to identify small molecule agonists of the farnesoid-X-receptor (FXR) signaling pathway - cell viability counter screen (AID 743218); conditions: FXR-bla HEK293T viability, CellTiter-Glo luminescence, 16 h; viability change, negative = cytotoxic: at 62.6 µM (top of the series) unless noted; note: nearly all actives have a fitted effect of over 45% in size; for viability change, negative = cytotoxic: % is set by controls: 0 for no effect and ±100 for the full control effect
# In short: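 FXR-UAS-bla HEK 293T cells, plated 5 h at 37 C, were exposed to compounds for 16 h at 37 C. CellTiter-Glo was then added to the same wells as the bla readout; luminescence read after 30 min at room temperature.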
# [14] = qHTS assay to identify small molecule antagonists of the farnesoid-X-receptor (FXR) signaling pathway - cell viability counter screen (AID 743221; active = well fitted cell-killing curve with a large enough effect in the repeat runs, not every such curve was filed as active; inconclusive = weak or mixed curves, or effect the other way; inactive = no such curve, though single readings can be large or run the other way; note: nearly all actives have a fitted effect of over 50% in size); conditions: FXR-bla HEK293T viability, CellTiter-Glo luminescence, 16 h; activity change, negative = cytotoxicity: at 62.6 µM (top of the series) unless noted
# In short: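 Cytotoxicity counter screen run in the FXR-bla reporter wells: HEK 293T cells exposed to compound with 50 uM (final) chenodeoxycholic acid for 16 h, 37 C, then viability measured by CellTiter-Glo luminescence after 30 min, room temperature.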
# [15] = qHTS assay to identify small molecule agonists of the vitamin D receptor (VDR) signaling pathway - cell viability counter screen (AID 743224); conditions: VDR-bla HEK293T viability, CellTiter-Glo luminescence, 16 h; activity change, negative = cytotoxicity: at 62.6 µM (top of the series); note: nearly all actives have a fitted effect of over 50% in size
# In short: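 VDR-bla cells were preincubated 4 h at 37C/5% CO2, then exposed to compounds for 16 h. After the 2 h room-temperature bla FRET read, CellTiter-Glo was added to the same wells and luminescence read after 30 min.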
# [16] = qHTS assay to identify small molecule that activate the aryl hydrocarbon receptor (AhR) signaling pathway - cell viability counter screen (AID 743086); note: nearly all actives have a fitted effect of over 45% in size
# In short: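 HepG2-AhR-luc (HG2L7.5c1) cells, 4000/well, treated 24 h at 37 C with compound; viability measured as CellTiter-Fluor fluorescence after 30 min in the same wells as the luciferase read.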
# [17] = qHTS assay for small molecule activators of the heat shock response signaling pathway - cell viability counter screen (AID 743209); conditions: HSE-bla HeLa viability, CellTiter-Glo luminescence, 5 h; activity change, negative = cytotoxicity: at 62.6 µM (top of the series) unless noted; note: nearly all actives have a fitted effect of over 50% in size
# In short: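 CellSensor HSE-bla HeLa cells, plated overnight at 37 C/5% CO2, were exposed to compounds in DMSO for 5 h at 37 C. Viability was then read in the same wells by CellTiter-Glo luminescence after 30 min at room temperature.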
# [18] = target: Vitamin D3 receptor (Homo sapiens) (UniProt P11473); assay: qHTS assay to identify small molecule agonists of the vitamin D receptor (VDR) signaling pathway (AID 743222; calls by dose curve); conditions: HEK293T VDR-UAS-bla, beta-lactamase FRET ratio, 16 h; activation: at 63.5 µM (top of the series) unless noted
# In short: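 VDR-bla cells were plated 4 h at 37C/5% CO2, then exposed to compounds in DMSO for 16 h. After LiveBLAzer B/G FRET substrate addition and 2 h at room temperature, beta-lactamase reporter fluorescence was read.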
# [19] = target: Vitamin D3 receptor (Homo sapiens) (UniProt P11473); assay: qHTS assay to identify small molecule antagonists of the vitamin D receptor (VDR) signaling pathway (AID 743223; active = well fitted inhibition curve with a large enough effect in the signal ratio in the repeat runs, not every such curve was filed as active; inconclusive = weak or mixed curves, or effect the other way; inactive = no such curve, though single readings can be large or run the other way; the % refers to the signal ratio); conditions: VDR-UAS-bla HEK293T, beta-lactamase FRET ratio, 16 h; activity change, negative = inhibition: at 61 µM (top of the series) unless noted
# In short: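 Antagonist mode: compound added to VDR-bla cells alongside agonist 1alpha,25-dihydroxyvitamin D3 (3 nM final), incubation 16 h at 37C. Read-out is LiveBLAzer FRET fluorescence, 2 h at room temperature.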
# Potency is the fitted concentration of half-maximal effect; tags give direction and shape of the fitted curve or compound fluorescence and quenching.
# Chain of UniProt P37231 (P37231 whole entry, looked up): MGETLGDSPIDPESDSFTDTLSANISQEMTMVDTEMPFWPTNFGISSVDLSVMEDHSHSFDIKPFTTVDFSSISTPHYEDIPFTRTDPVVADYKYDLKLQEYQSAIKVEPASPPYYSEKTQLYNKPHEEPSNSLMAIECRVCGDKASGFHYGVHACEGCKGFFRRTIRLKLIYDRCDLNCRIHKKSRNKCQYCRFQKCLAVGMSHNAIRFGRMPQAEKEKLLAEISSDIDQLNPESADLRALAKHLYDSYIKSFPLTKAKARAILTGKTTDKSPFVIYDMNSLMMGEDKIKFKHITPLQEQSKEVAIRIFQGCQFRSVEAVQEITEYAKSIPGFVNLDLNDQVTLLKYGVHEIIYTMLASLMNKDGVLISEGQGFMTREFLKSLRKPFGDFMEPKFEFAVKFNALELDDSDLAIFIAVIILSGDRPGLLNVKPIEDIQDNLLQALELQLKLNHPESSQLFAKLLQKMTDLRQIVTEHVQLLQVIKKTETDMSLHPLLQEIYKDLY
# Chain of UniProt P35869 (P35869 whole entry, looked up): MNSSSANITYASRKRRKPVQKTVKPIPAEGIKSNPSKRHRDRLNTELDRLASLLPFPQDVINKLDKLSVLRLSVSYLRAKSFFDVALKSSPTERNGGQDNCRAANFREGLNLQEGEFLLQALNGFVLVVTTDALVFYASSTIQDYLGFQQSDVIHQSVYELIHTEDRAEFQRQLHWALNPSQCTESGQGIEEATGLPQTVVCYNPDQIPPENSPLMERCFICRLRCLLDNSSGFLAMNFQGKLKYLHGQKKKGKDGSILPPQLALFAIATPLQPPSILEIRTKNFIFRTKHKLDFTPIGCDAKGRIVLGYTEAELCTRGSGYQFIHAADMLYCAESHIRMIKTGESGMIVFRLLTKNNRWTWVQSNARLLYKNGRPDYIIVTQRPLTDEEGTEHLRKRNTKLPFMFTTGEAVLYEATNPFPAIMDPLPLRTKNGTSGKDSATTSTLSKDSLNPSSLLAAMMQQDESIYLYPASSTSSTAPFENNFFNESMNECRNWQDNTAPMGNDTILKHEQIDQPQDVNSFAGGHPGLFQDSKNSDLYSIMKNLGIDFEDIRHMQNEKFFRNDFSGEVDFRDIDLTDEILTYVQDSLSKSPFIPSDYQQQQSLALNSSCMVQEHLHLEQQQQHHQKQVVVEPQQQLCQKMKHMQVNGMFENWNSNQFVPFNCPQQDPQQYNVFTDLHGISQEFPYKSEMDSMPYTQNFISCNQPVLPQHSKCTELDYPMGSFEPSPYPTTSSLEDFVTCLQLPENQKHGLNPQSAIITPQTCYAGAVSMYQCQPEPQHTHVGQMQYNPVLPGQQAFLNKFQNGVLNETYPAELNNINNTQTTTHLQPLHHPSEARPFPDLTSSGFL
# Chain of UniProt Q03181 (Q03181 whole entry, looked up): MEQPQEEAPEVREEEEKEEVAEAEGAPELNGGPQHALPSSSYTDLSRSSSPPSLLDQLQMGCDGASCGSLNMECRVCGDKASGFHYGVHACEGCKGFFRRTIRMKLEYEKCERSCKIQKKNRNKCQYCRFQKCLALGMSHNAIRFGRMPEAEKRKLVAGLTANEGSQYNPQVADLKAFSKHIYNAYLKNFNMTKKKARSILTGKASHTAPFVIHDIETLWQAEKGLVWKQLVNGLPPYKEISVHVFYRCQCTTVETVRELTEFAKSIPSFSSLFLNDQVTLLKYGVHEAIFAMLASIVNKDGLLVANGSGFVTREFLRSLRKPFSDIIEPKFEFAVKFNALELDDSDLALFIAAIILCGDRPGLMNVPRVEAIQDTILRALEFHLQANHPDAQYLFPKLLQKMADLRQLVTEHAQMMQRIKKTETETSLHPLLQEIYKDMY
# Chain of UniProt P11473 (P11473 whole entry, looked up): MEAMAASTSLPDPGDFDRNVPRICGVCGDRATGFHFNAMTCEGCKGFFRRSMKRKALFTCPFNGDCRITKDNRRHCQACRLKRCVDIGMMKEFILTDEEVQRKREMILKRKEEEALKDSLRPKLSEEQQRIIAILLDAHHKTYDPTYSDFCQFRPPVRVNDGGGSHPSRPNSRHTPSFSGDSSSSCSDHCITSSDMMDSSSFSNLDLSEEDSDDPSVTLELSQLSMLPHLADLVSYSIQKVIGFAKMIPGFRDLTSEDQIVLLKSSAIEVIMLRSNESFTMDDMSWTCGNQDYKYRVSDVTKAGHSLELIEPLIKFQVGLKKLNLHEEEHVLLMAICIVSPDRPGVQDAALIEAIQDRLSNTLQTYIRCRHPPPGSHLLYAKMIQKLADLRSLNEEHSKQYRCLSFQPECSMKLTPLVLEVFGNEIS
# Chain of UniProt Q96RI1 (Q96RI1 whole entry, looked up): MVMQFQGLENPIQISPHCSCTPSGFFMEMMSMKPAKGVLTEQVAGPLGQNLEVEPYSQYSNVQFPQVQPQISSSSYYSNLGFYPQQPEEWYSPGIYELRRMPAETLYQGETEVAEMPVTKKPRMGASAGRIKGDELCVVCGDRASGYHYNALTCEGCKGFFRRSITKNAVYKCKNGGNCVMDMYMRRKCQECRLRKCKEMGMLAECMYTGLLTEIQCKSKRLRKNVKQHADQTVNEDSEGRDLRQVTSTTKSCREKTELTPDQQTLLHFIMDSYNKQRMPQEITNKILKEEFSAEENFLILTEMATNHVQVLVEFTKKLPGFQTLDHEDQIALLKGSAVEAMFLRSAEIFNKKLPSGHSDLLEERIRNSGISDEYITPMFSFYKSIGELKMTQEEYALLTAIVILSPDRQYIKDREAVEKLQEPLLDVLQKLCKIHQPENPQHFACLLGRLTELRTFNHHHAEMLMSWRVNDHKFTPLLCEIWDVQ
SMILES,Potency [1],Potency [2],activation [2],Potency [3],Potency [4],Potency [5],Potency [6],Potency [7],Potency [8],Potency [9],Potency [10],Potency [11],Potency [12],Potency [13],Potency [14],Potency [15],Potency [16],Potency [17],Potency [18],Potency [19]
C=C1CC[C@H](O)C/C1=C\C=C1/CCC[C@]2(C)[C@@H]([C@H](C)CCCC(C)C)CC[C@@H]12,"inconclusive: 18.8 µM [activator, partial curve, poor fit]",inconclusive: 54.4 µM [partial curve],inconclusive: -10.4%,active: 54.4 µM,active: 61.1 µM,active: 21.5 µM,"inconclusive: 68 µM [cytotoxic, single point]",inconclusive: 56.6 µM,inconclusive: 54.4 µM [cytotoxic],"inconclusive: 34.4 µM [rising, partial curve]",active: 43.2 µM,"inconclusive: 48.5 µM [rising, partial curve]",inconclusive: 54.4 µM,active: 48.5 µM,active: 48.5 µM,inconclusive: 54.4 µM [cytotoxic],,,,
Cn1cnc([N+](=O)[O-])c1Sc1ncnc2nc[nH]c12,inactive and active: 19.2 µM,,,inconclusive: 61.1 µM,"inconclusive: 1.71 µM [cytotoxic, full curve]",inconclusive: 1.71 µM [activator] and active: 8.41 µM,,,inconclusive: 7.71 µM [cytotoxic],,,,,inconclusive: 14.9 µM [cytotoxic] and inactive,"inconclusive: 6.82 µM [phenotype inactive, full curve]",,"inconclusive: 13.3 µM [falling, partial curve, poor fit]","inconclusive: 0.0188 µM [cytotoxic, full curve, poor fit]",,
CCCCCCCCS(=O)C(C)Cc1ccc2c(c1)OCO2 (stereo not drawn),active: 27.8 µM,"inconclusive: 22.3 µM [rising, single point]",,active: 56 µM,,active: 19.7 µM,"inconclusive: 69.9 µM [cytotoxic, single point]",inconclusive: 56 µM,,,"inconclusive: 62.9 µM [cytotoxic, partial curve, poor fit]",,inconclusive: 62.9 µM,"inconclusive: 62.9 µM [cytotoxic, single point]",inconclusive: 56 µM,,,"inconclusive: 62.9 µM [cytotoxic, single point]","inconclusive: 56 µM [rising, partial curve]","inconclusive: 50 µM [rising, partial curve]"

# Reference: PubChem BioAssay (Tox21)
